About 6,900 (2%) of roughly 340,000 compounds were called active. Cut-off read from the data, not from the text of the source: active = inhibition above about 30%; inactive = below that, where a call was filed. Only a part is listed here, and it is no random draw. The source gives no active or inactive call for entries shown without one.
biological target: D(2) dopamine receptor (Homo sapiens) (UniProt P14416); test: HTS Assay for Allosteric Antagonists of the Human D2 Dopamine Receptor: Primary Screen for Antagonists; conditions: HEK293 TREx D2 cells, calcium flux, dopamine EC80; at 10 µM; stronger effect = higher value; note: 0% is about no effect
UniProt P14416, sequence (P14416 whole entry, looked up): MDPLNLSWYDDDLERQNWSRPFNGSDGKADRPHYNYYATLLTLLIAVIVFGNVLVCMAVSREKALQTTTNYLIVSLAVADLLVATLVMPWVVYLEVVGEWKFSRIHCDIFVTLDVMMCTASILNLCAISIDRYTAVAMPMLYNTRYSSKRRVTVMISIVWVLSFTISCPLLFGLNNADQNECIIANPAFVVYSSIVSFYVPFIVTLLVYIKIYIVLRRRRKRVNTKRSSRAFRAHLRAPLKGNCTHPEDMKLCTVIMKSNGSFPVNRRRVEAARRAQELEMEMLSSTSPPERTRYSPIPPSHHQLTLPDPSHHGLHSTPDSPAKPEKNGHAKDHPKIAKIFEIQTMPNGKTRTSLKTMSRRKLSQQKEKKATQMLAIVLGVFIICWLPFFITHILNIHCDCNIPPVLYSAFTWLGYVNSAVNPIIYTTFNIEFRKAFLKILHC
Procedure, shortened: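 Cells plated overnight at 30 C with tetracycline; no-wash calcium dye, 30–90 min RT; 10 s baseline; compound pinned; 180 s read; EC80 dopamine added; another 180 s read.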

SMILES	inhibition
CCc1ccccc1N1C(=O)N(CC(=O)c2ccc(Cl)cc2)c2ccccc2S1(=O)=O	-3.44%
Cc1ccc(Cn2c(=O)n(CCc3ccccc3)c(=O)c3c(C)c(C)sc32)cc1	-17.7%
CCOc1ccc(C2=C(C(=O)CC)Sc3nncn3N2C(=O)CC)cc1	1.98%
COc1ccc(Nc2cc(C(=O)NCc3cccs3)c3ccccc3n2)cc1	-16.1%
CCN1CCN(c2nc(Nc3cccc(F)c3)nc(N)c2[N+](=O)[O-])CC1	active: 73.4%
COc1ccc(CCNC(=O)CSc2cn(CCNC(=O)c3ccccc3F)c3ccccc23)cc1OC	3.06%
CN1CCN(C(=O)C(=O)Nc2c3c(nn2-c2cccc(Cl)c2)CSC3)CC1	-9.24%
CCCCOC(=O)Cn1nnc2sc(-c3ccccc3)cc2c1=O	-17.6%
O=C(CSc1ncc(-c2ccccc2)[nH]1)Nc1ccc(F)cc1F	-16.5%
O=C(CCCCn1c(=O)c2ccccc2n(CC(=O)Nc2ccc(F)cc2F)c1=O)NCc1ccccc1Cl	-16.2%
COC(=O)C1=C(c2ccccc2)c2ccccc2S(=O)(=O)N1CC(=O)Nc1cccc(C(C)=O)c1	16.4%
Cc1ccc(CCNC(=O)c2ccc(NC(=O)N3CC(C)Sc4ccccc43)cc2)cc1 (stereo not drawn)	-3.8%
COc1cccc(NC(=O)c2sc3nc(C)c(C(=O)Nc4ccc(C)cc4C)c(-c4ccccc4Cl)c3c2N)c1	10.3%
CCc1ccc(-c2nc(CN3CCC(C(=O)NCCc4ccc(Cl)cc4)CC3)c(C)o2)cc1	13.3%
CCOC(=O)c1ccccc1NC(=O)Cn1ncc2c([nH]c3ccccc32)c1=O	5.2%
COc1cccc(C2CC(=O)Nc3cc4c(cc32)OCCO4)c1OC (stereo not drawn)	3.1%
CCc1ccccc1NC(=O)CCn1nc(C)c2c(C)n(-c3ccccc3)nc2c1=O	10.4%
Cc1ccccc1Cn1c(SCc2ccc(C(=O)NC(C)c3ccccc3)cc2)nc2ccncc21 (stereo not drawn)	-6.04%
CCc1ccc(-n2c(=O)c3c4c(sc3n(CC(=O)NCCCOC)c2=O)CCCC4)cc1	24.9%
Fc1ccc(NCc2cccn2-c2nnc(N3CCOCC3)s2)cc1	10%
CC1CCN(c2ncnc3c2cnn3-c2ccc(F)cc2)CC1	-0.0479%
O=C(NCCc1cccs1)c1ccc(Cn2c(SCc3ccc(F)cc3)nc3cccnc32)cc1	-13.3%
COc1ccc(C(=O)CN2CCN(S(=O)(=O)c3ccc(C(C)C)cc3)CC2)cc1	14.3%
COc1ccc(CN2CCn3ncc(C(=O)Nc4cc(C)cc(C)c4)c3C2=O)cc1	active: 37.7%

SMILES	inhibition
COc1cccc(CN2CCc3nc(Nc4ccc5c(c4)OCCO5)ncc3C2)c1	9.07%
Cc1ccc2nc(N(Cc3cccnc3)C(=O)Cc3ccccc3)sc2c1	-11.3%
COc1ccc(C(=O)/C=C2\Sc3ccccc3N2C)cc1	active: 40.5%
Cc1ccc(-c2nc3nc(C)cc(N4CCN(c5cc(Cl)ccc5C)CC4)n3n2)cc1	0.786%
COc1cccc(-n2c(SCC(=O)Nc3cc(C)ccc3C)nc3c(oc4ccccc43)c2=O)c1	-4.8%
CCn1c(=O)n(-c2ccc(C)c(F)c2)c(=O)c2sc3ccccc3c21	-4.88%
CCCCN1C(N)=NC[C@H]1Cc1ccc(O)cc1	active: 47.7%
COc1ccc(-c2cc(C(=O)Oc3ccccc3)c3cc(C)ccc3n2)cc1	13%
COc1ccc(C2=NC3(CCCCC3)N(CC(=O)Nc3ccc(C(C)C)cc3)C2=O)cc1	4.37%
CCOCCCNC(=O)c1ccc2nc(CCc3ccccc3)oc2c1	9.41%
O=C(Nc1ccc(Cl)c(C(F)(F)F)c1)NC1CC2CCCC(C1)N2Cc1ccccc1 (stereo not drawn)	active: 47.5%
O=C(COC(=O)c1cc(-c2cccs2)nc2ccccc12)c1ccccc1	-9.31%
CCOC(=O)c1oc2ccc(S(=O)(=O)n3nc(-c4ccccc4OC)cc3N)cc2c1C	23.7%
O=C1C2CCCN2C(c2ccccc2)N1c1nccs1 (stereo not drawn)	active: 66.8%
CCCN(CCC)CCCNC(=O)Cn1cnc2sc(C)c(S(=O)(=O)N3CCCCC3)c2c1=O	24.7%
CCCN(Cc1cccs1)C(=O)Nc1cc(Cl)c(OC)cc1OC	7.13%
Cn1c(=O)c2c(c3ccccc31)OC(=O)CC2c1ccc(C(F)(F)F)cc1 (stereo not drawn)	0.326%
O=C(Nc1ccc2oc(-c3cccc4c(Br)cccc34)nc2c1)c1ccc(F)cc1	3.16%
CCc1ccc(NC(=O)C(NS(=O)(=O)c2cccs2)C(C)C)cc1 (stereo not drawn)	-2.98%
CCCCN(C)CCNC(=O)c1ccc2c(=O)n(CCc3ccccc3)c(=O)[nH]c2c1	-11.8%
COc1ccccc1C(=O)NCC(=O)N1CC=C(c2ccccc2)CC1	active: 30.2%
Cc1nc(N2CCOCC2)c2c(C(=O)NCc3cccc(Cl)c3)c(C)oc2n1	19.5%
O=C(CCCCCn1c(=O)c2sccc2n(CC(=O)Nc2cccc(Cl)c2)c1=O)NCc1ccc2c(c1)OCO2	8.77%
CCOC(=O)Cc1ccc(NC(=O)Nc2cccc(OCc3cc(=O)n4cc(C)ccc4n3)c2)cc1	11.7%

SMILES	inhibition
COc1ccc(-c2nc3c(c(SCC(=O)Nc4ccc(C(=O)O)cc4)n2)Cc2ccccc2O3)cc1	-15.7%
CCc1cccc(NC(=O)CSc2ncc3c(n2)-c2ccc(Cl)cc2N(Cc2ccccc2)S3(=O)=O)c1	14.5%
CCc1c(C)sc2c1CCN(C(=O)Nc1cc(OC)c(OC)c(OC)c1)C2c1ccccc1 (stereo not drawn)	17.5%
O=C(NCCN1CCN(c2ccccc2)CC1)C1CCCN(S(=O)(=O)c2cnc[nH]2)C1 (stereo not drawn)	active: 75.7%
COc1cccc(C(=O)NC2(C(F)(F)F)C(=O)Nc3c2c(=O)[nH]c(=O)n3-c2ccc(C)cc2)c1 (stereo not drawn)	1.37%
COc1ccc(NC(=O)c2cn(CC(C)C)c(=O)c3cc(OC)c(OC)cc23)cc1Cl	-0.339%
COc1ccccc1NS(=O)(=O)c1cccc2cccnc12	active: 31.1%
Cc1ccc(NC(=O)c2nn(C)c3c2CS(=O)(=O)c2ccccc2-3)c(Cl)c1	-9.81%
C#CC(C)(C)NS(=O)(=O)c1cc(-c2nnc(Nc3ccc(C)cc3)c3ccccc23)ccc1C	2.16%
COc1ccc(-n2cc(CNCCc3cscn3)c(-c3ccccc3Cl)n2)cc1	active: 47.6%
Cc1ccc(NC(=O)NCc2ccc3c(c2)CCN3C(=O)c2ccccc2)c(Cl)c1	18%
Cc1ccc(NC(=O)CN(c2ccccc2)S(=O)(=O)N(C)C)cc1Cl	13.2%
CN(Cc1ccccc1)C(=O)CN1C(=O)CSc2ccc(S(=O)(=O)N3CCOCC3)cc21	-28.1%
COc1ccc(OC)c(S(=O)(=O)Nc2cc3c(cc2C)n(C)c(=O)c(=O)n3C)c1	10.6%
COc1ccc(N(C(=O)/C=C\C(=O)Nc2ccc(Cl)cc2)C(C(=O)NCc2ccco2)c2ccc(C)cc2)cc1 (stereo not drawn)	-7.97%
COc1ccc(NC(=O)CCS(=O)(=O)c2nc(-c3cccs3)cc(C(F)(F)F)n2)cc1OC	-1.74%
O=C(c1noc2c1CCCCC2)N1CCN(c2ccc(Cl)cc2)CC1	1.31%
COc1ccccc1NC(=O)Cn1c(=O)n(Cc2ccc3c(c2)OCO3)c(=O)c2oc3ccccc3c21	2.55%
Cc1ccc(S(=O)(=O)c2nc(-c3cccs3)oc2N2CCCCC2)cc1	-21.3%
CC(C)OP(=O)(c1ccc(N(C)C)cc1)C(O)c1ccncc1 (stereo not drawn)	active: 31.7%
Cc1ccc(-n2ncc(C(=O)NCCN3CCN(C)CC3)c2C2CCN(C(=O)OC(C)(C)C)CC2)c(C)c1	-5.4%
CC(=O)c1cccc(NS(=O)(=O)c2ccc3[nH]c4c(c3c2)CCCCCC4)c1	4.01%
COc1ccccc1N1CCN(C2CCCN(Cc3cccc(O)c3)C2)CC1 (stereo not drawn)	active: 48.6%
COc1cccc(N2CC(NC(=O)Cc3cccs3)CC2=O)c1 (stereo not drawn)	12.6%

SMILES	inhibition
Cc1ccc2c(c1)c1c(c(=O)n(-c3ccccc3)c(=O)n1CC(=O)N1CCCC1)n2C	21.3%
CCOc1ccc(OCC)c(Nc2nc3ccccc3c3nnc(C)n23)c1	-6.46%
CCn1cc(C(=O)NCCc2ccc(C)cc2)c(=O)c2cc(S(=O)(=O)N(C)C)ccc21	11.8%
CN1C(=O)CC(=O)N(C)c2cc(S(=O)(=O)N(C)Cc3ccccc3)ccc21	18.8%
Cc1cc(C)c(Cn2c3ccccc3c3cnn(CC(=O)N4CCCCC4)c(=O)c32)c(C)c1	-3.29%
CCCCN(CCCC)CCNC(=O)c1cn(C)c2ccc(S(=O)(=O)N3CCOCC3)cc2c1=O	-9.11%
CN(C(=O)c1ccc(Br)o1)C1CCS(=O)(=O)C1 (stereo not drawn)	active: 37.2%
Cc1c(Cl)cccc1NS(=O)(=O)c1ccc2[nH]cc(C(=O)NC3CCCC3)c(=O)c2c1	0.848%
COc1cc(C(C)=O)ccc1OCC(O)CN1CCN(c2ccccc2)CC1 (stereo not drawn)	active: 85.2%
CCOC(=O)C1CCC(CN(Cc2ccccc2)S(=O)(=O)c2ccc(Cl)cc2)CC1 (stereo not drawn)	-11.9%
CCOc1ccc(-n2c(-c3ccc(C)cc3)nc3c(cnn3-c3ccccc3)c2=O)cc1	-0.357%
Cc1ccc(NC(=O)CCn2c(=O)c3cccn3c3ccccc32)c(Cl)c1	-24.1%
CCOC(=O)c1c(S(=O)(=O)N2CCC(C(=O)Nc3ccccc3OC)CC2)c(C)n(CC)c1C	20.4%
COc1ccc(CCNC(=O)Cn2cc(C(=O)c3ccccc3)c(=O)c3ccc(C)nc32)cc1OC	9.47%
O=S(=O)(c1ccc(Br)cc1)c1nc(-c2ccco2)oc1SCc1ccccc1Cl	-5.12%
Cc1ccc(CCNC(=O)c2nn(C)c3c2CSc2ccccc2-3)cc1	19.7%
CCCCOc1ccc(CNC(=O)CN2CCSc3ccccc32)cc1	7.77%
COc1ccc(-n2nc(C(=O)N(C)c3cccc(C(F)(F)F)c3)c3c4ccccc4n(C)c3c2=O)cc1	11.7%
Cn1c(N)c(C(=O)CSc2nnc(-c3ccccc3F)n2N)c(=O)n(C)c1=O	active: 33.7%
Cc1nc2nc(NC(=O)c3cccc(Cl)c3)[nH]n2c(=O)c1Cc1ccccc1	7.99%
CCn1nnc2cc(C(=O)Nc3cccc(Cl)c3)ccc21	4.02%

Reference: PubChem BioAssay AID485344 (National Center for Advancing Translational Sciences (NCATS), 2010)
